# PubChem BioAssay AID686978 (National Center for Advancing Translational Sciences (NCATS), 2013)
# Hit rate of the full screen: of about 420,000 compounds, about 64,000 (15%) were called active. The inconclusive results got no clear call from the source; some entries with a clear call stand among them for comparison. Calls follow the shape of the dose curve; as a rule, active = well fitted inhibition curve with a large enough effect; inconclusive = small, poorly fitted or top-dose-only effect; inactive = flat fitted curve, though single readings scatter. No potency is given beside an inconclusive call; the fits are too rough.
# Experiment: qHTS for Inhibitors of human tyrosyl-DNA phosphodiesterase 1 (TDP1): qHTS in cells in absence of CPT; also: nearly all actives have a fitted effect of over 55% in size
# Settings: DT40 Tdp1-/- hTDP1 cells, no CPT, ATP luminescence, 48 h; activity change, negative = growth inhibition: at 46.2 µM (top of the series) unless noted
# In short: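 Compound effects on proliferation are scored in DT40 Tdp1-/-;hTDP1 cells in the absence of CPT. ATP levels (CellTiter-Glo luminescence) are recorded after a ≥48 hr, 37 °C incubation.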
# % is scaled to controls: 0 for no effect and ±100 for the full control effect; potency is read from the fitted curve at half-maximal effect; tags tell the direction and shape of the fitted curve.
SMILES,"activity change, negative = growth inhibition",Potency
CCCCCCC(C)OC(=O)c1ccccc1C(=O)O (centres undefined),inactive: -5.93%,–
COc1ccc(S(=O)(=O)NCC(c2ccc(N(C)C)cc2)N2CCc3ccccc32)cc1F (centres undefined),–,"inconclusive [inhibitor, partial curve, poor fit]"
CCCNC(=O)/C(C#N)=C1\N=C(NC(=O)c2ccco2)c2ccccc21,–,"inconclusive [inhibitor, single point]"
O=C(O)c1c(Cl)c(Cl)c(Cl)c(Cl)c1-c1c2cc(I)c(=O)c(I)c-2oc2c(I)c(O)c(I)cc12,–,active: 15 µM
CC1CCN(c2ccc(S(=O)(=O)NC3=NCCCCC3)cc2[N+](=O)[O-])CC1,–,"inconclusive [inhibitor, single point]"
CC(=O)Nc1ccc(-c2csc(Nc3ncccn3)n2)cc1,inactive: 1.5%,–
Cc1ccnc(NC(=O)CCCOc2ccccc2)c1,inactive: -0.626%,–
Cc1[nH]nc(Nc2ccccc2)c1[N+](=O)[O-],inactive: -12.4%,–
CCOC(=O)c1c(N2CCN(c3ccccc3)CC2)cc(C)nc1C,–,"inconclusive [inhibitor, single point]"
CCCn1nc(C(=O)Nc2nc3ccccc3[nH]2)c2ccccc2c1=O,–,active: 16.4 µM
CCOc1ccc(N(CC)S(=O)(=O)N2CCCC(C(=O)Nc3ccc(OC)c(Cl)c3)C2)cc1 (centres undefined),–,active: 23.1 µM
Cc1cc(C)cc(SCc2noc(C(=O)NCC3CC3)c2C(=O)NCC2CC2)c1,–,"inconclusive [inhibitor, single point]"
Cc1cc(C)n2nc(SCC(=O)NC(=O)c3ccc(OC(F)F)cc3)nc2n1,inactive: -6.39%,–
COc1cccc(CN(CC(=O)NC2CCCCC2)C(=O)c2csnn2)c1,inactive: -7.53%,–
CSc1cccc(NS(=O)(=O)c2ccc3c(c2)oc(=O)n3C)c1,–,"inconclusive [inhibitor, partial curve, poor fit]"
CN(Cc1cccc2ccccc12)C(=O)c1cc(COc2c(F)cccc2F)on1,–,"inconclusive [inhibitor, single point]"
O=C(O)c1cc(-c2ccc(-c3ccc(F)cc3)o2)nc2ccccc12,inactive: 0.001%,–
Cc1ccc2c(c1)CCCN2C(=O)c1cc(C)c(C)s1,–,"inconclusive [inhibitor, single point]"
Fc1ccc(C2CC(c3ccccc3)Nc3ncnn32)cc1 (centres undefined),inactive: -25.1%,–
Cc1ccc(-c2nnc3c4ccccc4c(C)nn23)cc1S(=O)(=O)N1CCN(CCO)CC1,–,active: 18.4 µM
Cc1c(Cl)ccc2sc(N3CCN(C(=O)C4CC4)CC3)nc12,–,active: 5.8 µM
COc1ccc(-c2onc(C)c2C)cc1S(=O)(=O)N1CCN(c2cc(C)ccc2C)CC1,–,active: 20.6 µM
COc1ccc(-c2cc3nc(C)c(CCC(=O)NC(C)c4ccccc4)c(C)n3n2)c(OC)c1 (centres undefined),–,"inconclusive [inhibitor, single point]"
O=S(=O)(/N=C(/Nc1ccc(F)cc1F)c1ccccc1)c1ccccc1,inactive: -7.2%,–
N#Cc1ccc(-c2nc3ccc(Br)cn3c2Cc2ccccc2C(F)(F)F)cc1,–,"inconclusive [inhibitor, single point]"

SMILES,"activity change, negative = growth inhibition",Potency
CCC1OC2(C)OC(=N)C1(C#N)C(C#N)(C#N)C2c1ccccc1 (centres undefined),–,"inconclusive [inhibitor, single point]"
COC(=O)CC(=O)CSc1nc2cc(C(=O)NCC(C)C)ccc2c(=O)n1CCc1ccccc1,–,active: 20.6 µM
Cc1cc(Br)cn2c(Cc3ccsc3)c(-c3ccco3)nc12,–,"inconclusive [inhibitor, single point]"
Cc1nc(N2CCN(c3ccccn3)CC2)c2c(C)c(C(=O)Nc3ccc(F)cc3F)sc2n1,–,active: 13 µM
CCN1CCN(c2ccc(NC(=O)c3ccc(Cl)c(S(=O)(=O)N4CCCC4)c3)cc2)CC1,–,"inconclusive [inhibitor, single point]"
CC(C)CN(C(=O)COC(=O)c1cc(=O)[nH]c2ccccc12)c1c(N)n(Cc2ccccc2)c(=O)[nH]c1=O,inactive: 6.69%,–
O=C(NCc1cccnc1)/C(=C/c1ccc(Cl)cc1)NC(=O)c1ccccc1,inactive: -24.2%,–
COc1ccc(CN2CSC(=S)N(Cc3ccc(OC)cc3)C2)cc1,–,active: 14.6 µM
COc1ccccc1-c1n[nH]c(=S)o1,inactive: -6.06%,–
CCOC(=O)c1cccc(NC(=O)CN(c2ccc(C)cc2)S(=O)(=O)c2c(C)noc2C)c1,–,"inconclusive [inhibitor, partial curve]"
CCCSc1nc2c(c(=O)n1-c1ccc(OCC)cc1)SCC2,–,"inconclusive [inhibitor, partial curve, poor fit]"
COc1ccc(/C=c2\sc3nc(-c4ccccc4OC)nn3c2=O)c(OC)c1,–,"inconclusive [inhibitor, single point]"
Cc1c(C=O)c2ccccc2n1CC(=O)NC(C)c1ccccc1 (centres undefined),–,active: 23.1 µM
Cc1ccsc1CN(C)CC(=O)Nc1ccc([N+](=O)[O-])cc1Cl,–,"inconclusive [inhibitor, full curve, poor fit]"
O=C(O)c1nnn(-c2cccc(C(F)(F)F)c2)c1-c1ccccc1,inactive: 6.74%,–
CCC1(C)Cc2c(sc3c2c2ncnn2c2nnc(SCC(=O)NCc4ccco4)n32)CO1 (centres undefined),–,"inconclusive [inhibitor, single point]"
Cc1ccc(S(=O)(=O)CC(=O)NCc2ccc(Cl)cc2)cc1,inactive: 8.31%,–
COC(=O)CN(c1cc(Cl)ccc1OC)S(=O)(=O)c1ccc(OC)c(OC)c1,inactive: -23.7%,–
COc1ccc(-c2noc(CN(C)S(=O)(=O)c3ccc(C)cc3)n2)cc1,–,active: 18.4 µM
COc1cccc(NC(=S)N(Cc2ccccn2)Cc2ccccc2Cl)c1,inactive: -95.3%,–
COC(=O)CCC(=O)N1CCCC(CO)(Cc2ccccc2)C1 (centres undefined),inactive: -38.2%,–
CC1CCCc2sc3nc(N4CCN(CCO)CC4)n4ncnc4c3c21 (centres undefined),–,"inconclusive [inhibitor, single point]"
CC(C)(C)C1c2[nH]c3ccccc3c2CCN1CCCn1cccn1 (centres undefined),–,"inconclusive [inhibitor, single point]"
CC(C)[C@H](NC(=O)OCc1ccccc1)C(=O)OCC(=O)N1CCCCC1,–,"inconclusive [inhibitor, partial curve]"
C=CCc1cccc(Cl)c1OCCCNC1CCCC1,–,active: 18.4 µM

SMILES,"activity change, negative = growth inhibition",Potency
O=C(CSc1nnc(-c2cccs2)o1)NCC1CN(Cc2ccccc2)CCO1 (centres undefined),–,"inconclusive [inhibitor, partial curve, poor fit]"
Cc1ccc(OCCCC(=O)N(C)CC(=O)Nc2ccccc2Cl)cc1,inactive: -20.2%,–
Cc1ccc(NC(=O)c2ccc(S(=O)(=O)NCC3CCCO3)cc2)cc1C (centres undefined),inconclusive: -30.1% [inhibitor],–
Cc1cc(N=Nc2ccc3ccccc3c2)ccc1O,inactive: -5.46%,–
COc1ccc(N2CCN(CCC(O)c3ccc4ccccc4c3)CC2)cc1 (centres undefined),–,"inconclusive [inhibitor, single point]"
CS(=O)(=O)N(CC(=O)NCCC1=CCCCC1)C1CCCCC1,–,"inconclusive [inhibitor, partial curve, poor fit]"
COc1cc(-c2nc(-c3ccc(NC(=O)c4ccc5c(c4)OCO5)cc3)no2)cc(OC)c1OC,–,"inconclusive [inhibitor, partial curve, poor fit]"
FC(F)Oc1ccc(-n2cc(-c3ccccc3)[n+]3c2CCCCC3)cc1,–,active: 5.8 µM
COc1cccc(CNC(=O)C2CCCN(S(=O)(=O)c3ccc4c(c3)C(C)(C)C(=O)N4C)C2)c1 (centres undefined),–,"inconclusive [inhibitor, partial curve, poor fit]"
CCC(=O)Nc1ccc(S(=O)(=O)N2CCN(c3ccc(F)cc3)CC2)cc1,inactive: -20.7%,–
CN1OC[C@@H]2CN3C(=O)N(c4cccc5ccccc45)c4ccccc4[C@@H]3C[C@@H]21,–,"inconclusive [inhibitor, single point]"
C=CCNC(=O)C1CCC(CNc2nc(=S)[nH]c3ccccc23)CC1 (centres undefined),inactive: -23.2%,–
O=C1OC(OC(=O)c2ccccc2Br)C(N2CCOCC2)=C1Cl (centres undefined),–,"inconclusive [inhibitor, partial curve, poor fit]"
COc1ccccc1-c1nn(Cc2ccccc2)cc1/C=C/C(=O)O,inactive: -1.23%,–
Cc1cc(O)ccc1-c1cc(C(=O)NCc2ccc(F)cc2)[nH]n1,inactive: -23.7%,–
Cc1cccc(NC(=O)N2CCC(CN3CCCCCC3)CC2)c1C,–,"inconclusive [inhibitor, single point]"
Cc1nc(SCC(=O)Nc2ccc(C(=O)O)cc2)n[nH]1,inactive: -3.23%,–
O=C(CSc1nnc(CNC(=O)c2ccc(F)cc2)o1)c1ccccc1,–,"inconclusive [inhibitor, single point]"
CSc1nc(SCCO)c2sc3nc(-c4ccco4)c4c(c3c2n1)CC(C)(C)OC4,–,"inconclusive [inhibitor, partial curve]"
Cc1ccc(C)c(OCC(=O)Nc2ccc(C(=O)O)cc2NC(=O)COc2cc(C)ccc2C)c1,–,"inconclusive [inhibitor, single point]"
CCOc1ccccc1/C=N/Nc1nc2c(N)ncnc2n1[C@H]1O[C@@H](CO)[C@H](O)[C@@H]1O,–,"inconclusive [inhibitor, partial curve, poor fit]"
CCOc1ccccc1C(=O)N1CCC(c2nc3ccccc3o2)CC1,–,active: 20.6 µM
CCc1ccccc1NC(=O)Cn1nc(N2CCN(c3ccccc3OC)CC2)ccc1=O,–,active: 13 µM
CC(=O)Nc1cccc(N/C(N)=N/c2nc(C)cc(C)n2)c1,inactive: -12.1%,–
